From publication PMC4336329 (PLoS ONE, 2015)
In all, about 310,000 compounds went through this assay and about 2,200 (0.71%) showed an effect of 50% or more. Effects have a minus sign here. The list shows a part of the results.

molecular target: human ether-à-go-go-related gene (hERG) potassium channel (human, UniProt Q12809); assay: primary screen, population patch clamp on CHO cells stably expressing hERG
Sequence (Q12809 whole entry, looked up): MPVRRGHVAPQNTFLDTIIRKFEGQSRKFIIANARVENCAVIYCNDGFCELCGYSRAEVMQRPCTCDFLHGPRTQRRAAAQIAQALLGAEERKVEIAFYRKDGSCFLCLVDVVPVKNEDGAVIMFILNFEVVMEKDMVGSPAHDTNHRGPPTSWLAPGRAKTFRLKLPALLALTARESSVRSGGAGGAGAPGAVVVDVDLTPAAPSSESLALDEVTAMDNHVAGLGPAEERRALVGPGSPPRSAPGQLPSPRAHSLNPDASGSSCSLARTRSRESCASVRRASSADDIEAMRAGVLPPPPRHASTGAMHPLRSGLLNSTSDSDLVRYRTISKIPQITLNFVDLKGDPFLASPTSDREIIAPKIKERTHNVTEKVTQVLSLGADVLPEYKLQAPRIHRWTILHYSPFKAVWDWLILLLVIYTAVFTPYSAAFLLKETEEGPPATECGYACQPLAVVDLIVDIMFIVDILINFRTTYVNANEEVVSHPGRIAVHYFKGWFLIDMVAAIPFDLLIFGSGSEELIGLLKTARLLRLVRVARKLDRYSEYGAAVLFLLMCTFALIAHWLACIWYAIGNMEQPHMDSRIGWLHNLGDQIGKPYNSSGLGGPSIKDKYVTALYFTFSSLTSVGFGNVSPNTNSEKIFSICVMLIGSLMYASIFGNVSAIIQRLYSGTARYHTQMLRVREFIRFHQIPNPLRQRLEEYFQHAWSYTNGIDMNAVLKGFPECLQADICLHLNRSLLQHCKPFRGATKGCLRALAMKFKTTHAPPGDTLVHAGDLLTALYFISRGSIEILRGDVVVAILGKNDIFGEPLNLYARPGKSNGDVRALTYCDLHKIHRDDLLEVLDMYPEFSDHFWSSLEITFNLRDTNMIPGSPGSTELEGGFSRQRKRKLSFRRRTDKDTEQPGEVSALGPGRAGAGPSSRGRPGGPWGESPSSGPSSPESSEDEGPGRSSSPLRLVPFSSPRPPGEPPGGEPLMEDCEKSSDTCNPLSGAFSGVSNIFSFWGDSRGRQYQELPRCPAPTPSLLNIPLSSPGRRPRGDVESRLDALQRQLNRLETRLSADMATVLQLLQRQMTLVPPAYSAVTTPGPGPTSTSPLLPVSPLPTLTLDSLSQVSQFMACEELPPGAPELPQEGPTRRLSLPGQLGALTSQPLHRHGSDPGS

Row | Compound | hERG current change (%, negative = inhibition) at 1uM [%]
1 | O=C(O)c1cccc(NC(=O)c2ccc3c(c2)C(=O)N(CC2CCCO2)C3=O)c1 (centres unmarked) | 8.86
2 | O=c1[nH]c(=O)c2ccccc2[nH]1 | 12.9
3 | CC(C)(C)OC(=O)NCCc1nnc(SCc2ccccc2Cl)o1 | -4.46
4 | CC(C)C(=O)c1cc2c(cc1NC(=O)c1ccccc1)OCCO2 | 12.6
5 | O=C(NCc1ccccc1)N1CCN(c2ccc(Cl)c(Cl)c2)CC1 | 13.6
6 | Cc1ccc(Cc2nnc3n(-c4cccc(C)c4)nc(C(=O)c4ccccc4)n3c2=O)cc1 | 7.57
7 | O=C(Nc1nc2ccc(S(=O)(=O)N3CCCC3)cc2s1)c1ccco1 | 15
8 | COC(=O)c1c(C)[nH]c(C(=O)OCC(=O)N(CC(C)C)c2c(N)n(Cc3ccccc3)c(=O)[nH]c2=O)c1C | -12.9
9 | O=C(CSc1ccccc1C(=O)N1CCCCC1)NCC1CCCCC1 | 5.8
10 | O=C(O)C(=O)O.Oc1ccccc1CNCCCN1CCOCC1 | 13.9
11 | COc1ccc(CNC(=S)Nc2cccc(F)c2)cc1 | 4.7
12 | O=C(CSc1nnc(-c2cccc(S(=O)(=O)N3CCCC3)c2)n1-c1ccccc1)Nc1cccc(C(=O)O)c1 | 6.66
13 | Cc1cc(C)c2c(N)c3ccccc3nc2n1 | -15.5
14 | C/C(=N\NC(=O)Cn1nnc2ccccc21)c1ccco1 | 8.98
15 | CCC(C)Nc1nc(-c2cccc(OC)c2O)nc2ccccc12 (centres unmarked) | 1.13
16 | COc1ccc(C2C3=C(CC(C)(C)CC3=O)Oc3ncn(CCO)c(=N)c32)cc1OC (centres unmarked) | -7.71
17 | COC(=O)c1cn(C(=O)c2cc(Br)ccc2Cl)c2ccccc12 | 15.2
18 | COc1ccccc1OCc1nc(Cc2ccc(Cl)cc2)no1 | -33.7
19 | CCC(C)NC(=O)C1CCC(=O)N1Cc1ccc(C)cc1 (centres unmarked) | 17.9
20 | Cc1cc(NC(=O)CSc2nnnn2-c2ccccc2)no1 | 5.76

Row | Compound | hERG current change (%, negative = inhibition) at 1uM [%]
21 | O=C(Nc1ccccc1)c1cccc(Cn2cc(C(F)(F)F)ccc2=O)c1 | 9.13
22 | O=C(NN1C(=O)C2C3C=CC(C3)C2C1=O)c1cccc(Cl)c1 (centres unmarked) | 7.15
23 | CSc1ccc(C2=CC(=O)C[C@H](c3ccc(F)cc3)C2)cc1 | 13.7
24 | Cc1cc(Cl)c2oc(C(=O)N(C)CCc3cnn(C)c3)c(C)c2c1 | 14.8
25 | Cc1nn(-c2ccccc2)c(C)c1C1C(C#N)=C(N)Oc2n[nH]c(C)c21 (centres unmarked) | 7.64
26 | O=C(Nc1nccs1)c1ccc(COc2ccccc2Br)o1 | 4.08
27 | O=C(c1ccc(=O)[nH]c1)N(Cc1cccs1)C1(C(=O)NC2CCCC2)CCCCC1 | 5.07
28 | COc1cccc(/C=C/C(=O)OCC(=O)Nc2ccc(S(=O)(=O)N3CCCC3)cc2)c1 | 7.4
29 | O=C(COc1ccccc1C(=O)c1cnn(-c2ccccc2)c1)Nc1ccccc1 | 2.78
30 | O=C(CN1C(=O)NC2(CCOc3ccccc32)C1=O)c1ccc[nH]1 (centres unmarked) | -1.24
31 | O=C(CCCOC(=O)c1ccc(O)cc1O)c1ccc(F)cc1 | -0.497
32 | CCn1c(P(C)(=O)[O-])nc2ccccc21.[Na+] | 13.6
33 | COc1ccc(N2C(=O)NC3CC2(C)Oc2ccccc23)cc1OC (centres unmarked) | 4.01
34 | Cn1c(=O)cc(OCCCC(=O)NCCC2=CCCCC2)c2ccccc21 | 4.79
35 | CCOc1ccc(CCNC(=O)CCn2cccc2)cc1OCC | 8.86
36 | Cc1ccccc1C(=O)/C=C1/c2ccccc2CC(C)(C)N1C | -13.3
37 | CC(=O)c1ccc(NC(=O)C(C)OC(=O)C2CCN(c3ccc(C(F)(F)F)cn3)CC2)cc1 (centres unmarked) | 9.25
38 | COc1ccc(NC(=O)CN(C)S(=O)(=O)c2cnc[nH]2)cc1OC | 14.3
39 | CC(C)(C)c1nnc2cccc(Cl)n12 | 4.22
40 | CC(NS(=O)(=O)OCC(Cl)(Cl)Cl)c1ccc(C(C)(C)C)cc1 (centres unmarked) | 13.3

Row | Compound | hERG current change (%, negative = inhibition) at 1uM [%]
41 | O=S(=O)(CCc1ccncc1)Cc1ccc2c3c(cccc13)CC2 | 13
42 | Cc1ccc(NC(=O)C(Nc2cccc(C)c2)c2ccccc2)cc1 (centres unmarked) | 5.62
43 | CC(C)CC1CCCCC1OC(=O)CN1CCCCC1 (centres unmarked) | 18.5
44 | CCn1c(C)nc2c1C(=O)c1ccccc1C2=O | 2.73
45 | COc1ccc2nc(SCC(=O)Nc3c(C)cc(C)cc3C)[nH]c2c1 | 19.5
46 | Cn1c(SCC(=O)NC2CC2)nnc1C(F)(F)F | 2.9
47 | COc1cc(/C=N/NC(=O)C(=O)NCc2ccco2)ccc1O | 4.87
48 | Nc1ccc(/C=C/C(=O)c2cccs2)cc1 | 7.35
49 | CC(C)Cc1nnc(NC(=O)CN2C(=O)NC3(CCCC3)C2=O)s1 | -1.25
50 | COc1ccc(S(=O)(=O)N2CCC(C(=O)NCc3cccs3)CC2)cc1 | 9.41
51 | Cc1cccc(C(=O)NNC(=O)c2n[nH]c(=O)c3ccccc23)c1C | 2.94
52 | CCSc1nnc(NC(=O)CSc2c(Cl)cccc2Cl)s1 | 0.994
53 | COCCn1c(Sc2ccc(C)cc2)nc2c1c(=O)[nH]c(=O)n2C | 11.1
54 | COc1ccccc1CN1CCN(Cc2nc(-c3ccccc3)no2)CC1 | -13.2
55 | CCOC(=O)/C(C#N)=C/c1ccc(N2CCN(C)CC2)cc1 | -7.63
56 | CC1CCC/C(=N\NC(=S)Nc2ccccc2)C1 (centres unmarked) | 19.7
57 | CCc1ccc(NC(=O)C(=O)NCC(O)c2ccccc2)cc1 (centres unmarked) | 10.9
58 | COc1ccc2oc(C(=O)OCC(=O)N(C)Cc3ccccc3)c(C)c2c1 | 10.7
59 | COc1cccc(CNC(=O)Cc2ccc(OC)c(S(=O)(=O)N3CCOCC3)c2)c1 | 17.9
